Results taken from the supplement of paper PMC8728848.
The list shows a part of the results.

Tests used:
Experiment in all cases: glycan array binding signal (z-score within array); higher = stronger binding
Conditions in all cases: glycan notation: IUPAC condensed, linker removed
Gal6S(b1-4)Glc = target: Gal6S(b1-4)Glc
In short: (§1)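 The binding signal is a Z-score computed within each array and averaged over linkers. Arrays of the same protein sequence at different concentrations or buffers were also averaged together. Data originate from 3228 arrays in the Consortium for Functional Glycomics database, kept only where the protein sequence was available.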

Gal6S(b1-4)Glc6S = target: Gal6S(b1-4)Glc6S
In short: as §1

Gal6S(b1-4)GlcNAc = target: Gal6S(b1-4)GlcNAc
In short: as §1

Gal6S(b1-4)GlcNAc6S = target: Gal6S(b1-4)GlcNAc6S
In short: as §1

GalNAc(a1-3)Gal = target: GalNAc(a1-3)Gal
In short: as §1

GalNAc(a1-3)GalNAc = target: GalNAc(a1-3)GalNAc
In short: as §1

[1] = target: GalNAc(a1-3)GalNAc(b1-3)Gal(a1-4)Gal(b1-4)Glc
In short: as §1

[2] = target: GalNAc(a1-3)GalNAc(b1-3)Gal(a1-4)Gal(b1-4)GlcNAc
In short: as §1

GalNAc(b1-3)Gal = target: GalNAc(b1-3)Gal
In short: as §1

[3] = target: GalNAc(b1-3)Gal(a1-4)Gal(b1-4)GlcNAc
In short: as §1

[4] = target: GalNAc(b1-3)Gal(a1-4)Gal(b1-4)GlcNAc(b1-3)Gal(b1-4)Glc
In short: as §1

[5] = target: GalNAc(b1-3)Gal(a1-6)Gal(b1-4)Glc
In short: as §1

GalNAc(b1-3)GalNAc = target: GalNAc(b1-3)GalNAc
In short: as §1

GalNAc(b1-3)GlcNAc = target: GalNAc(b1-3)GlcNAc
In short: as §1

GalNAc(b1-4)Gal(b1-4)Glc = target: GalNAc(b1-4)Gal(b1-4)Glc
In short: as §1

GalNAc(b1-4)GlcNAc = target: GalNAc(b1-4)GlcNAc
In short: as §1

[6] = target: GalNAc(b1-4)GlcNAc(b1-2)Man
In short: as §1

[7] = target: GalNAc(b1-4)GlcNAc(b1-2)Man(a1-3)[GalNAc(b1-4)GlcNAc(b1-2)Man(a1-6)]Man(b1-4)GlcNAc(b1-4)GlcNAc
In short: as §1

[8] = target: GalNAc(b1-4)GlcNAc(b1-3)GalNAc(b1-4)GlcNAc
In short: as §1

GalNAc(b1-4)GlcNAc6S = target: GalNAc(b1-4)GlcNAc6S
In short: as §1

GalNAc(b1-6)GalNAc = target: GalNAc(b1-6)GalNAc
In short: as §1

GalNAc3S(b1-4)GlcNAc = target: GalNAc3S(b1-4)GlcNAc
In short: as §1

GalNAc3S(b1-4)GlcNAc3S = target: GalNAc3S(b1-4)GlcNAc3S
In short: as §1

[9] = target: GalNAc3S(b1-4)[Fuc(a1-3)]GlcNAc
In short: as §1

GalNAc4S6S(b1-4)GlcNAc = target: GalNAc4S6S(b1-4)GlcNAc
In short: as §1

GalNAc6S(b1-4)GlcNAc = target: GalNAc6S(b1-4)GlcNAc
In short: as §1

Glc(a1-4)Glc = target: Glc(a1-4)Glc
In short: as §1

[10] = target: Glc(a1-4)Glc(a1-4)Glc(a1-4)Glc
In short: as §1

Glc(a1-6)Glc(a1-6)Glc = target: Glc(a1-6)Glc(a1-6)Glc
In short: as §1

[11] = target: Glc(a1-6)Glc(a1-6)Glc(a1-6)Glc
In short: as §1

Glc(b1-4)Glc = target: Glc(b1-4)Glc
In short: as §1

Glc(b1-6)Glc = target: Glc(b1-6)Glc
In short: as §1

GlcA(b1-3)Gal = target: GlcA(b1-3)Gal
In short: as §1

GlcA(b1-3)GlcNAc = target: GlcA(b1-3)GlcNAc
In short: as §1

GlcA(b1-6)Gal = target: GlcA(b1-6)Gal
In short: as §1

[12] = target: GlcA3S(b1-3)Gal(b1-4)GlcNAc(b1-2)Man
In short: as §1

[13] = target: GlcA3S(b1-3)Gal(b1-4)GlcNAc(b1-3)Gal(b1-4)Glc
In short: as §1

[14] = target: GlcNAc(a1-3)Gal(b1-4)GlcNAc
In short: as §1

[15] = target: GlcNAc(a1-4)Gal(b1-3)GlcNAc
In short: as §1

[16] = target: GlcNAc(a1-4)Gal(b1-4)GalNAc
In short: as §1

[17] = target: GlcNAc(a1-4)Gal(b1-4)GlcNAc
In short: as §1

[18] = target: GlcNAc(a1-4)Gal(b1-4)GlcNAc(b1-3)Gal(b1-4)Glc
In short: as §1

[19] = target: GlcNAc(a1-4)Gal(b1-4)GlcNAc(b1-3)Gal(b1-4)GlcNAc
In short: as §1

[20] = target: GlcNAc(a1-4)Gal(b1-4)GlcNAc(b1-3)Gal(b1-4)GlcNAc(b1-3)Gal(b1-4)GlcNAc
In short: as §1

[21] = target: GlcNAc(a1-4)Gal(b1-4)GlcNAc(b1-3)Gal(b1-4)[Fuc(a1-3)]GlcNAc(b1-3)Gal(b1-4)[Fuc(a1-3)]GlcNAc
In short: as §1

B1: CAA (Caragana arborescens) (protein)
chain: VAVEFDTFDNPDWDPRTKHIGIDVNSIRSNKTTQWGFWNRQVADVDISYEASSKTLNVSLYYPGESYIVTDVVDLKDILPEWVRIGF
glycan array binding signal (z-score) (Gal6S(b1-4)Glc): -0.233 | glycan array binding signal (z-score) (Gal6S(b1-4)Glc6S): -0.245 | glycan array binding signal (z-score) (Gal6S(b1-4)GlcNAc): -0.239 | glycan array binding signal (z-score) (Gal6S(b1-4)GlcNAc6S): -0.249 | glycan array binding signal (z-score) (GalNAc(a1-3)Gal): -0.233 | glycan array binding signal (z-score) (GalNAc(a1-3)GalNAc): -0.249 | glycan array binding signal (z-score) [1]: -0.251 | glycan array binding signal (z-score) [2]: -0.237 | glycan array binding signal (z-score) (GalNAc(b1-3)Gal): -0.231 | glycan array binding signal (z-score) [3]: -0.243 | glycan array binding signal (z-score) [4]: -0.23 | glycan array binding signal (z-score) [5]: -0.245 | glycan array binding signal (z-score) (GalNAc(b1-3)GalNAc): -0.24 | glycan array binding signal (z-score) (GalNAc(b1-3)GlcNAc): -0.246 | glycan array binding signal (z-score) (GalNAc(b1-4)Gal(b1-4)Glc): -0.246 | glycan array binding signal (z-score) (GalNAc(b1-4)GlcNAc): -0.239 | glycan array binding signal (z-score) [6]: -0.236 | glycan array binding signal (z-score) [7]: -0.081 | glycan array binding signal (z-score) [8]: -0.264 | glycan array binding signal (z-score) (GalNAc(b1-4)GlcNAc6S): -0.249 | glycan array binding signal (z-score) (GalNAc(b1-6)GalNAc): -0.248 | glycan array binding signal (z-score) (GalNAc3S(b1-4)GlcNAc): -0.253 | glycan array binding signal (z-score) (GalNAc3S(b1-4)GlcNAc3S): -0.253 | glycan array binding signal (z-score) [9]: -0.255 | glycan array binding signal (z-score) (GalNAc4S6S(b1-4)GlcNAc): -0.247 | glycan array binding signal (z-score) (GalNAc6S(b1-4)GlcNAc): -0.252 | glycan array binding signal (z-score) (Glc(a1-4)Glc): -0.218 | glycan array binding signal (z-score) [10]: -0.247 | glycan array binding signal (z-score) (Glc(a1-6)Glc(a1-6)Glc): -0.237 | glycan array binding signal (z-score) [11]: -0.216 | glycan array binding signal (z-score) (Glc(b1-4)Glc): -0.233 | glycan array binding signal (z-score) (Glc(b1-6)Glc): -0.236 | glycan array binding signal (z-score) (GlcA(b1-3)Gal): -0.239 | glycan array binding signal (z-score) (GlcA(b1-3)GlcNAc): -0.242 | glycan array binding signal (z-score) (GlcA(b1-6)Gal): -0.239 | glycan array binding signal (z-score) [12]: -0.251 | glycan array binding signal (z-score) [13]: -0.243 | glycan array binding signal (z-score) [14]: -0.253 | glycan array binding signal (z-score) [15]: -0.239 | glycan array binding signal (z-score) [16]: -0.239 | glycan array binding signal (z-score) [17]: -0.236 | glycan array binding signal (z-score) [18]: -0.253 | glycan array binding signal (z-score) [19]: -0.246 | glycan array binding signal (z-score) [20]: -0.238 | glycan array binding signal (z-score) [21]: -0.201
